Measured values published in publication PMC4336329 (PLoS ONE, 2015).
Hit rate of the full screen: of about 310,000 compounds, about 2,200 (0.71%) showed an effect of 50% or more. The effect is printed as a negative number. The list shows a part of the results.

Molecular target: human ether-à-go-go-related gene (hERG) potassium channel (human, UniProt Q12809)
Assay: primary screen, population patch clamp on CHO cells stably expressing hERG

Sequence of human ether-à-go-go-related gene (hERG) potassium channel (Q12809 whole entry, looked up): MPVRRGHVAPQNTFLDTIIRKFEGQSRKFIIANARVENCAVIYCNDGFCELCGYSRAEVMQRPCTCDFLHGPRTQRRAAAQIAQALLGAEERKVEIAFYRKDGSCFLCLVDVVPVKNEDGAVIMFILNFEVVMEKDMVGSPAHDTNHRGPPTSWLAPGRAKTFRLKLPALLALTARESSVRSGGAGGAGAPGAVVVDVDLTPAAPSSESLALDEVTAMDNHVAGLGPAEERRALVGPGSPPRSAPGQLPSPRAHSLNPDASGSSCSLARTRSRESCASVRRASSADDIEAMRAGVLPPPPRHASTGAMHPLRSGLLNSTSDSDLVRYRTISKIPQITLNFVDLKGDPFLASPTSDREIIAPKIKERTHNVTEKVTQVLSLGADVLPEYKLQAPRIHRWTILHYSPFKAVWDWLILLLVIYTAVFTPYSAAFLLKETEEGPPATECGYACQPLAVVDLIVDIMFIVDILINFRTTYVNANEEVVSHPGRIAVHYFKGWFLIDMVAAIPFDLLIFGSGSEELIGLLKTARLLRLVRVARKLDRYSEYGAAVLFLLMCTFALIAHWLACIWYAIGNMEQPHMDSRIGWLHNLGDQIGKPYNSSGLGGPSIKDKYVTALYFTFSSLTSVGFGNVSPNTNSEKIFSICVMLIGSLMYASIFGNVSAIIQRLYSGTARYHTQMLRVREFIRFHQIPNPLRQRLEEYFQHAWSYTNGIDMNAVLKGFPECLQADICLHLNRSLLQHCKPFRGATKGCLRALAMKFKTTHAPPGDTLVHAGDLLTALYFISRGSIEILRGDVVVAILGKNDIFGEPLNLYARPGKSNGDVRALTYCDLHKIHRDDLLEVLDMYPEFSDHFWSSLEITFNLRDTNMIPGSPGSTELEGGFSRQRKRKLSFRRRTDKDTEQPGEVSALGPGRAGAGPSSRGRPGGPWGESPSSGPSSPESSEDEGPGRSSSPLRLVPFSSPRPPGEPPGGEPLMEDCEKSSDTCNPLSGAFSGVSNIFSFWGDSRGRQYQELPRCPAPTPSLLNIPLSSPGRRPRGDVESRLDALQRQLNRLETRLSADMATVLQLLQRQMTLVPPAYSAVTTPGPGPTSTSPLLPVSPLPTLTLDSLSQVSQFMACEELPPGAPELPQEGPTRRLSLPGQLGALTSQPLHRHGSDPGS

SMILES	hERG current change (%, negative = inhibition) at 1uM
O=C1CCC(=O)N1c1cccc(OS(=O)(=O)c2ccccc2)c1	4.44%
COc1cc(/C=C2/C(=N)N3N=C(CC(=O)N4CCOCC4)SC3=NC2=O)ccc1OCc1ccc(F)cc1	19.9%
CCS(=O)(=O)N1Cc2ccccc2CC1C(=O)Nc1nnc(SCc2c(Cl)cccc2Cl)s1 (stereo not shown)	17.9%
COc1ccc(NC(=O)c2ccccc2-c2ccc(C(F)(F)F)cc2)cc1S(=O)(=O)N1CCOCC1	8.67%
CCOC(=O)CS(=O)(=O)c1nc(-c2ccc(F)cc2)cc(C(F)(F)F)n1	3.82%
c1ccc(OCc2nc3ccccc3[nH]2)cc1	12%
NNC(=O)CN1C(=O)Nc2ccc(Cl)cc2C1c1ccccc1 (stereo not shown)	13.3%
O=C(Cc1cccc(C(F)(F)F)c1)NCC(c1ccco1)N1CCCCC1 (stereo not shown)	9.69%
O=C(NCc1ccccc1Cl)C1CCN(C(=O)c2sccc2-n2cccc2)CC1	9.59%
Cc1ccccc1C1NC(c2ccccc2C)C([N+](=O)[O-])C(C)(C)C1[N+](=O)[O-] (stereo not shown)	5.37%
S=c1[nH]nc(-c2ccccn2)n1/N=C/c1cccc2ccccc12	9.16%
CCOC(=O)N1CCN(CC(=O)c2ccc3c(c2)CCN3)CC1	-5.99%
Nc1ccc2nc(-c3cccc(-c4nc5ccc(N)cc5[nH]4)n3)[nH]c2c1	15.2%
CC(C)(O)C#Cc1ccc(CN2CCN(Cc3ccsc3)C(CCO)C2)s1 (stereo not shown)	3.1%
COCCNc1nc2c(c(=O)[nH]c(=O)n2C)n1CCCc1ccccc1	17.1%
O=C(N/N=C/c1ccc(Br)cc1)c1ccc(F)cc1	9.76%
Cc1cccc2nc(CSc3nnc(N)s3)cn12	13.6%
Cc1ccc(CSc2nnc(C(F)(F)F)n2Cc2ccc(F)cc2)cc1	5.8%
COc1cccc(C2=Nn3c(nnc3-c3ccccc3O)SC2)c1	10.5%
Cc1ccccc1NC(=O)c1ccccc1NC(=O)c1ccco1	9.7%
COc1ccc(NC(=O)Cn2nnc(C(=O)NCc3cccs3)c2N)cc1	18.4%
CC(C)CC(C(=O)NC1CCCCC1)N(Cc1cccs1)C(=O)c1snc(C(N)=O)c1N (stereo not shown)	7.79%
COc1ccc(C(=O)OCC(=O)NC2CCCC2)c(OC)c1OC	13.5%
O=C(Nc1ccccn1)c1ccc(Br)c(S(=O)(=O)N2CCCC2)c1	15.4%
O=C(c1ccco1)N1CCc2[nH]nc(-c3ccc(Cl)cc3)c2C1	15.5%
O=C(OCCN=C1NS(=O)(=O)c2ccccc21)c1ccncc1	6.61%
CC(Oc1ccccc1Cl)C(=O)N(Cc1cccs1)C1CCS(=O)(=O)C1 (stereo not shown)	-0.472%
O=C(Nc1nnc(CCN2CCCCC2)s1)C1CCCCC1	8.47%

SMILES	hERG current change (%, negative = inhibition) at 1uM
CN(C)c1ccc(-c2nnc(SCC3CCCO3)n2C)cc1 (stereo not shown)	5.94%
COc1ccccc1N1CCN(C(c2cccs2)C(C)NS(=O)(=O)c2ccccc2)CC1 (stereo not shown)	5.1%
O=C(CCc1ccccc1)OCC(=O)c1ccc([N+](=O)[O-])cc1	16.3%
COc1cc(C(=O)N2CCN(C)CC2)cc(OC)c1OC.Cl	14.8%
O=C(CSc1nnnn1C1CCCCC1)N1CCOCC1	6.66%
Nc1cc(=O)[nH]c(SCc2ccc(Cl)cc2)n1	-11.4%
O=C(OCc1ccc(C(=O)c2ccccc2)cc1)c1cccc(-c2nnc(-c3ccccc3)o2)c1	4.19%
CCOC(=O)[C@@H](C)NS(=O)(=O)N(Cc1ccccc1)[C@H](C(=O)OC)C(C)C	13.1%
Cc1oc(-c2ccc(Cl)cc2)nc1CN1CCCC(C(=O)N2CCN(C(=O)c3ccco3)CC2)C1 (stereo not shown)	-75.1%
CC12C(=O)N(c3cccc(OC(=O)c4ccco4)c3)C(=O)C1C1c3ccccc3C2c2ccccc21 (stereo not shown)	7.96%
N#C/C(C(=O)c1ccccc1)=C1/CCCCCN1	15.3%
COc1ccc(-c2nc(CN(C)C(C)c3ccon3)c(C)o2)c(C)c1C (stereo not shown)	17.2%
O=c1cccc2n1CC1CC2CN(C(c2ccccc2)c2sc3ncnn3c2O)C1 (stereo not shown)	15.4%
Cc1cccc(-n2c(/C=C/c3ccccn3)nc3ccccc3c2=O)c1	15.3%
O=C(O)C1Cc2ccccc2CN1S(=O)(=O)c1ccccc1 (stereo not shown)	10.8%
COC(=O)c1ccc2c(=O)n(Cc3ccc4c(c3)OCO4)c(=S)[nH]c2c1	13%
CCc1ccc2[nH]c(=O)c(CN(CCO)C(=O)NCc3ccccc3)cc2c1	8.06%
CCOC(=O)C1CCN(C(=S)Nc2ccccc2)CC1	6.38%
COc1ccc(CC(=O)N[C@@H](CCSC)c2nc3ccccc3[nH]2)cc1	7.68%
CS(=O)(=O)N(CC(=O)NCc1ccco1)c1ccc2c(c1)OCO2	-7.78%
Cc1cc(C(=O)N/N=C/c2ccc([N+](=O)[O-])s2)c2ccccc2n1	12.2%
O=C(Nc1cc(Cl)ccc1Cl)C1CC(=O)N(c2ccc(Br)cc2)C1 (stereo not shown)	20.5%
CCOC(=O)CCCCNC(=O)Nc1ccccc1	17.8%
COc1ccc(O)c(CNn2c(-c3ccc(Br)cc3)nc3ccccc3c2=O)c1	4.61%
CCn1nccc1C(=O)Nc1nc2ccccc2n1CCN1CCCCC1	-11.2%
O=C(CN1CCN(C/C=C/c2ccccc2)CC1)Nc1ccc(F)cc1F	-87.4%
CC(C)N(Cc1nccn1C)C(=O)c1cc(COc2ccc(-n3cncn3)cc2)on1	-18.5%
